Results published in PubChem BioAssay (NCATS).
“And” between values parts separate entries of the source, which are not always exact repeats. Equal values may be shown once. Inconclusive means that the source gave no clear call. Such entries were picked first, then a sample of the others. For part of these data: Potencies beside an inconclusive call are fits to weak or partial responses and may not hold up. The source made the active and inactive calls. Calls follow the shape of the dose curve; as a rule, active = well fitted curve in the direction sought with a large enough effect; inconclusive = small, poorly fitted or top-dose-only effect, or another doubt; inactive = no such curve, though single readings can be large; an effect the other way counts as inactive or inconclusive.

Columns and labels:
[1] = P-glycoprotein substrates identified in KB-8-5-11 adenocarcinoma cell line, qHTS therapeutic library screen (AID 1346987); also: potency is read from the fitted curve at half-maximal effect; nearly all actives have a fitted effect of over 65% in size
Procedure, shortened: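 In this qHTS, P-gp-rich KB-8-5-11 cells received library compounds across a concentration range. Viability was quantified by luminescence after 72 h at 37 degree C.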

[2] = Primary fluorescence-based thiol-reactive (MSTI) qHTS assay for identification of artifact compounds. (AID 1845221); also: potency is read from the fitted curve at half-maximal effect;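 also: thiol-reactive compounds lower the probe fluorescence signal; nearly all actives have a fitted effect of over 65% in size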
Procedure, shortened: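 Reactivity toward the thiol probe MSTI (4 uM) is scored by fluorescence at Ex/Em 525/598 nm after 1 h at room temperature. Acetyl-MSTI and MSTI define the activity scale.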

CRL-7250 = normal cell line; experiment: Cytotoxic Profiling of Annotated Libraries Using Quantitative High-Throughput Screening (AID 1296008); details: Five cell lines viability, CellTiter-Glo ATP luminescence, 48-72 h; max response: stronger effect = lower value; also: nearly all actives have a fitted effect of over 60% in size; also: potency is read from the fitted curve at half-maximal effect; as to max response: % is scaled to controls: 0 for no effect and ±100 for the full control effect
Procedure, shortened: (§1)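 Compounds were pin-transferred onto cells and incubated 48 or 72 hr at 37 degree Celsius, 95% humidity. CellTiter-Glo was added, plates sat 10 min at room temperature, then ATP-coupled luminescence was imaged as the viability read-out.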

HaCat = experiment: as above; details: Five cell lines viability, CellTiter-Glo ATP luminescence, 48-72 h; max response: stronger effect = lower value
Procedure, shortened: as §1

C33A = experiment: Primary qHTS to identify gynecologic anti-cancer compounds using libraries of approved drugs and bioactive compounds (AID 1345084); details: Gynecologic cancer cell panel viability, ATPlite luminescence, 48 h; series mostly up to 57.5 µM; also: nearly all actives have a fitted effect of over 55% in size; also: potency is read from the fitted curve at half-maximal effect; as to activity change, negative = cytotoxicity: % is scaled to controls: 0 for no effect and ±100 for the full control effect
Procedure, shortened: (§2)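 Measured: luminescence after ATPlite addition (15 min, RT). Exposure: 48 h, 37 C, 5% CO2.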

CAOV3 = experiment: as above; details: Gynecologic cancer cell panel viability, ATPlite luminescence, 48 h; activity change, negative = cytotoxicity: at 57.5 µM (top of the series)
Procedure, shortened: as §2

CASKI = experiment: as above; details: Gynecologic cancer cell panel viability, ATPlite luminescence, 48 h; series mostly up to 57.5 µM
Procedure, shortened: as §2

Es-2 = experiment: as above; details: Gynecologic cancer cell panel viability, ATPlite luminescence, 48 h; series mostly up to 57.5 µM
Procedure, shortened: as §2

HeLa = experiment: as above; details: Gynecologic cancer cell panel viability, ATPlite luminescence, 48 h; activity change, negative = cytotoxicity: at 57.5 µM (top of the series)
Procedure, shortened: as §2

Hek293T = experiment: as above; details: Gynecologic cancer cell panel viability, ATPlite luminescence, 48 h, control line for the selectivity index; activity change, negative = cytotoxicity: at 57.5 µM (top of the series) unless noted
Procedure, shortened: as §2

OV90 = experiment: as above; details: Gynecologic cancer cell panel viability, ATPlite luminescence, 48 h; series mostly up to 57.5 µM
Procedure, shortened: as §2

PA-1 = experiment: as above; details: Gynecologic cancer cell panel viability, ATPlite luminescence, 48 h; series mostly up to 57.5 µM
Procedure, shortened: as §2

SKOV3 = experiment: as above; details: Gynecologic cancer cell panel viability, ATPlite luminescence, 48 h; series mostly up to 57.5 µM
Procedure, shortened: as §2

Tov-21-G = experiment: as above; details: Gynecologic cancer cell panel viability, ATPlite luminescence, 48 h; activity change, negative = cytotoxicity: at 57.5 µM (top of the series) unless noted
Procedure, shortened: as §2

Tov112D = experiment: as above; details: Gynecologic cancer cell panel viability, ATPlite luminescence, 48 h; series mostly up to 57.5 µM
Procedure, shortened: as §2

[3] = Primary qHTS for inhibitors of nuclear receptor binding SET domain protein 2 (NSD2) in an isogenic RCH-ACV NSD2 p.E1099K mutant (9B) (AID 1645876); also: nearly all actives have a fitted effect of over 70% in size; also: potency is read from the fitted curve at half-maximal effect
[4] = Primary qHTS for inhibitors of nuclear receptor binding SET domain protein 2 (NSD2) in an RCH-ACV wild type WT cells (2C) (AID 1645877); details: activity change, negative = cell killing: at 44.9 µM (top of the series) unless noted; also: nearly all actives have a fitted effect of over 70% in size; also: potency is read from the fitted curve at half-maximal effect
JEG-3 = experiment: Primary qHTS to identify gynecologic anti-cancer compounds using libraries of approved drugs and bioactive compounds (AID 1345084); details: Gynecologic cancer cell panel viability, ATPlite luminescence, 48 h; series mostly up to 57.5 µM; also: nearly all actives have a fitted effect of over 55% in size; also: potency is read from the fitted curve at half-maximal effect; as to activity change, negative = cytotoxicity: % is scaled to controls: 0 for no effect and ±100 for the full control effect
Procedure, shortened: as §2

[5] = test system: Zika virus NS2B-NS3 protease (unlinked complex); experiment: Primary screen GU Rhodamine qHTS for Zika virus inhibitors: Unlinked NS2B-NS3 protease assay (AID 1347159); also: % is scaled to controls: 0 for no effect and ±100 for the full control effect; nearly all actives have a fitted effect of over 60% in size
Procedure, shortened: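 Buffer 10 mM Tris-HCl pH 8.0, 0.01% Tween 20. Unlinked protease 25 nM; compound preincubation 15 min, RT, protected from light. Substrate Rhod110, 1.5 microM; ~15% conversion in 15 min.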
Tags tell the direction and shape of the fitted curve.

Row | SMILES | Potency [1] | Potency [2] | Potency (CRL-7250) | Potency (HaCat) | Potency (C33A) | Potency (CAOV3) | Potency (CASKI) | Potency (Es-2) | Potency (HeLa) | Potency (Hek293T) | Potency (OV90) | Potency (PA-1) | Potency (SKOV3) | Potency (Tov-21-G) | Potency (Tov112D) | Potency [3] | Potency [4] | Potency (JEG-3) | Potency [5] | max response (CRL-7250)
1 | COc1cc(N2CCC(N3CCN(C)CC3)CC2)ccc1Nc1ncc(Cl)c(Nc2ccccc2P(C)(C)=O)n1 | inconclusive: 18.4 µM [inhibitor, partial curve, poor fit] | inconclusive: 2.38 µM [inhibitor, full curve] | active: 2.06 µM | active: 1.84 µM | inconclusive: 28.2 µM [cytotoxic, partial curve, poor fit] | active: 2.24 µM | active: 10 µM | inconclusive: 12.6 µM [cytotoxic, partial curve] | active: 6.31 µM | inconclusive: 12.6 µM [cytotoxic, partial curve] | inconclusive: 1 µM [cytotoxic, full curve] | active: 11.2 µM | active: 8.91 µM | active: 7.08 µM | inconclusive: 11.2 µM [cytotoxic, partial curve] | – | – | – | – | –
2 | c1cn2cc(-c3ccc4cn[nH]c4c3)nc(Nc3ccc(N4CCOCC4)cc3)c2n1 | inconclusive: 23.1 µM [inhibitor, single point] | inconclusive: 0.844 µM [inhibitor, full curve] | inconclusive: 29.1 µM [inhibitor, single point] | inconclusive: 20.6 µM [inhibitor, single point] | active: 2.24 µM | active: 2 µM | active: 2.82 µM | active: 2.51 µM | active: 2.82 µM | active: 2.24 µM | active: 1.78 µM | – | active: 2.82 µM | – | – | inconclusive: 0.468 µM [inhibitor, full curve] | active: 409 nM and inconclusive: 525 nM [inhibitor, full curve] | active: 2.82 µM | – | –
3 | C=C1C(=O)OC2/C=C(\COC(C)=O)CC/C=C(\C=O)CC(OC(=O)CC(C)C)C12 (centres undefined) | inconclusive: 11.2 µM [inhibitor, single point] | – | active: 7.96 µM | inconclusive: 14.2 µM [inhibitor, single point] | inconclusive: 11.2 µM [cytotoxic, single point] | inconclusive: 20 µM [cytotoxic, single point] | – | inconclusive: 10 µM [cytotoxic, single point] | – | active: 8.91 µM | inconclusive: 7.94 µM [cytotoxic, partial curve, poor fit] | inconclusive: 11.2 µM [cytotoxic, single point] | inconclusive: 17.8 µM [cytotoxic, single point] | inconclusive: 11.2 µM [cytotoxic, partial curve, poor fit] | inconclusive: 14.1 µM [cytotoxic, single point] | – | active: 1.59 µM | inconclusive: 11.2 µM [cytotoxic, single point] | – | –
4 | CC(C)=CCC[C@](C)(O)[C@H]1CC[C@]2(C)[C@@H]1[C@H](O)CC1[C@@]3(C)CC[C@H](O)C(C)(C)[C@@H]3[C@@H](O[C@@H]3O[C@H](CO)[C@@H](O)[C@H](O)[C@H]3O[C@@H]3O[C@H](CO)[C@@H](O)[C@H](O)[C@H]3O)C[C@]12C (some centres undefined) | – | – | – | inconclusive: 1.93 µM [inhibitor, single point] | – | inconclusive: 12.6 µM [rising, single point] | – | – | – | – | – | – | inactive | – | – | inactive | inactive | – | inactive | inactive: -7.72%
5 | C[C@H]1C(=O)N2c3ccccc3[C@@]3(O)C[C@@H]4C(=O)N[C@](C)(c5nc6ccccc6c(=O)n54)N1[C@@H]23 | – | – | inconclusive: 10 µM [inhibitor, single point] | inconclusive: 0.0071 µM [inhibitor, full curve] | – | inactive | – | – | – | – | – | – | – | – | – | – | inconclusive: 8.93 µM [inhibitor, partial curve, poor fit] | – | – | –
6 | CCCC1(CCC)CCC2(CCN(CCCN(CC)CC)C2)CC1 | – | inactive | active: 4.11 µM | active: 4.61 µM | active: 6.31 µM | inconclusive: 3.55 µM [cytotoxic, full curve, poor fit] | active: 8.91 µM | active: 10 µM | – | active: 8.91 µM | active: 7.08 µM | active: 5.01 µM | active: 7.94 µM | – | inconclusive: 8.91 µM [cytotoxic, full curve, poor fit] | – | – | active: 5.62 µM | inactive | –
